Test results from the supplement of paper PMC9151546.
Most values come without repeats; read them as rough.

How the values were obtained:
[1] = test system: CHO-K1; assay: relative survival (nuclei to bead ratio vs DMSO control) (% of vehicle control); higher = more surviving cells
Method: (§1)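 Flow-cytometric in vitro micronucleus assay (Litron MicroFlow) in CHO-K1 cells in 96-well plates, 19 concentrations (4.5-200 µM, n=1 per concentration). Without S9, cells were exposed for 24 h and sampled at 48 h. With Aroclor 1254-induced rat liver S9, cells were exposed for 3-4 h and sampled at 27-28 h. Read-outs are %MN and %hypodiploid nuclei relative to nucleated events, and relative survival as the nuclei-to-bead ratio versus the 1% DMSO vehicle control (x100).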

[2] = test system: CHO-K1; assay: micronucleus frequency (% of nucleated events); higher = more micronuclei (genotoxic)
[3] = test system: CHO-K1; assay: hypodiploid nuclei frequency (% of nucleated events); higher = more hypodiploid events (aneugenic)
Method: as §1

[4] = concentration: 4.5 (µM), S9 metabolic activation: with S9, exposure time: 3-4 hours
[5] = concentration: 4.5 (µM), S9 metabolic activation: without S9, exposure time: 24 hours
[6] = concentration: 5.63 (µM), S9 metabolic activation: with S9, exposure time: 3-4 hours
[7] = concentration: 5.63 (µM), S9 metabolic activation: without S9, exposure time: 24 hours
[8] = concentration: 7.04 (µM), S9 metabolic activation: with S9, exposure time: 3-4 hours
[9] = concentration: 7.04 (µM), S9 metabolic activation: without S9, exposure time: 24 hours
[10] = concentration: 8.8 (µM), S9 metabolic activation: with S9, exposure time: 3-4 hours
[11] = concentration: 8.8 (µM), S9 metabolic activation: without S9, exposure time: 24 hours
[12] = concentration: 11 (µM), S9 metabolic activation: with S9, exposure time: 3-4 hours
[13] = concentration: 11 (µM), S9 metabolic activation: without S9, exposure time: 24 hours
[14] = concentration: 13.7 (µM), S9 metabolic activation: with S9, exposure time: 3-4 hours
[15] = concentration: 13.7 (µM), S9 metabolic activation: without S9, exposure time: 24 hours
[16] = concentration: 17.2 (µM), S9 metabolic activation: with S9, exposure time: 3-4 hours
[17] = concentration: 17.2 (µM), S9 metabolic activation: without S9, exposure time: 24 hours
[18] = concentration: 21.5 (µM), S9 metabolic activation: with S9, exposure time: 3-4 hours
[19] = concentration: 21.5 (µM), S9 metabolic activation: without S9, exposure time: 24 hours
[20] = concentration: 26.8 (µM), S9 metabolic activation: with S9, exposure time: 3-4 hours
[21] = concentration: 26.8 (µM), S9 metabolic activation: without S9, exposure time: 24 hours
[22] = concentration: 33.6 (µM), S9 metabolic activation: with S9, exposure time: 3-4 hours
[23] = concentration: 33.6 (µM), S9 metabolic activation: without S9, exposure time: 24 hours
[24] = concentration: 41.9 (µM), S9 metabolic activation: with S9, exposure time: 3-4 hours
[25] = concentration: 41.9 (µM), S9 metabolic activation: without S9, exposure time: 24 hours
[26] = concentration: 52.4 (µM), S9 metabolic activation: with S9, exposure time: 3-4 hours
[27] = concentration: 52.4 (µM), S9 metabolic activation: without S9, exposure time: 24 hours
[28] = concentration: 65.5 (µM), S9 metabolic activation: with S9, exposure time: 3-4 hours
[29] = concentration: 65.5 (µM), S9 metabolic activation: without S9, exposure time: 24 hours
[30] = concentration: 81.9 (µM), S9 metabolic activation: with S9, exposure time: 3-4 hours
[31] = concentration: 81.9 (µM), S9 metabolic activation: without S9, exposure time: 24 hours
[32] = concentration: 102 (µM), S9 metabolic activation: without S9, exposure time: 24 hours
[33] = concentration: 128 (µM), S9 metabolic activation: without S9, exposure time: 24 hours
[34] = concentration: 160 (µM), S9 metabolic activation: without S9, exposure time: 24 hours
[35] = concentration: 200 (µM), S9 metabolic activation: with S9, exposure time: 3-4 hours
[36] = concentration: 200 (µM), S9 metabolic activation: without S9, exposure time: 24 hours
[37] = concentration: 102 (µM), S9 metabolic activation: with S9, exposure time: 3-4 hours
[38] = concentration: 128 (µM), S9 metabolic activation: with S9, exposure time: 3-4 hours
[39] = concentration: 160 (µM), S9 metabolic activation: with S9, exposure time: 3-4 hours
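Wherever hypodiploid nuclei frequency (% of nucleated events) is given: hypodiploid nuclei gated on a flow cytometer with 488 nm excitation after SYTOX Green staining, cultures at 37 °C, positive controls vinblastine without S9 and cyclophosphamide with S9.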
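Wherever micronucleus frequency (% of nucleated events) is given: cells lysed with nuclei stained by SYTOX Green, then micronucleus-gated events counted against nucleated events by flow cytometry with 488 nm excitation.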
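Wherever relative survival (nuclei to bead ratio vs DMSO control) is given: Lysed-cell nuclei stained with SYTOX Green and counted against counting beads by flow cytometry at 488 nm excitation, with vinblastine (no S9) and cyclophosphamide (plus S9) as positive controls.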

CC/C(=C(/CC)c1ccc(O)cc1)c1ccc(O)cc1 [Diethylstilbestrol]
relative survival [1, 4]: 84.3 | relative survival [1, 5]: 81.1 | relative survival [1, 6]: 89.1 | relative survival [1, 7]: 106 | relative survival [1, 8]: 66.3 | relative survival [1, 9]: 91.9 | relative survival [1, 10]: 78.1 | relative survival [1, 11]: 101 | relative survival [1, 12]: 90.6 | relative survival [1, 13]: 86.4 | relative survival [1, 14]: 82.6 | relative survival [1, 15]: 88.7 | relative survival [1, 16]: 82.2 | relative survival [1, 17]: 52.5 | relative survival [1, 18]: 115 | relative survival [1, 19]: 23.2 | relative survival [1, 20]: 70.7 | relative survival [1, 21]: 17.9 | relative survival [1, 22]: 60.5 | relative survival [1, 23]: 17.2 | relative survival [1, 24]: 80.8 | relative survival [1, 25]: 15.1 | relative survival [1, 26]: 54.1 | relative survival [1, 27]: 25.8 | relative survival [1, 28]: 35.6 | relative survival [1, 29]: 30.7 | relative survival [1, 30]: 12.1 | relative survival [1, 31]: 30.9 | relative survival [1, 32]: 38.2 | relative survival [1, 33]: 28.2 | relative survival [1, 34]: 0.13 | relative survival [1, 35]: 0.06 | relative survival [1, 36]: 0.12 | micronucleus frequency [2, 4]: 1.32% | micronucleus frequency [2, 5]: 1.6% | micronucleus frequency [2, 6]: 1.06% | micronucleus frequency [2, 7]: 1.54% | micronucleus frequency [2, 8]: 1.02% | micronucleus frequency [2, 9]: 1.8% | micronucleus frequency [2, 10]: 1.36% | micronucleus frequency [2, 11]: 2.28% | micronucleus frequency [2, 12]: 1.3% | micronucleus frequency [2, 13]: 4.76% | micronucleus frequency [2, 14]: 1.52% | micronucleus frequency [2, 15]: 9.72% | micronucleus frequency [2, 16]: 1% | micronucleus frequency [2, 17]: 13.5% | micronucleus frequency [2, 18]: 1.48% | micronucleus frequency [2, 20]: 0.94% | micronucleus frequency [2, 22]: 1.42% | micronucleus frequency [2, 24]: 1.16% | micronucleus frequency [2, 26]: 1.12% | hypodiploid nuclei frequency [3, 4]: 0.16% | hypodiploid nuclei frequency [3, 5]: 1.06% | hypodiploid nuclei frequency [3, 6]: 0.1% | hypodiploid nuclei frequency [3, 7]: 1.18% | hypodiploid nuclei frequency [3, 8]: 0.22% | hypodiploid nuclei frequency [3, 9]: 1.92% | hypodiploid nuclei frequency [3, 10]: 0.26% | hypodiploid nuclei frequency [3, 11]: 3.88% | hypodiploid nuclei frequency [3, 12]: 0.2% | hypodiploid nuclei frequency [3, 13]: 10.1% | hypodiploid nuclei frequency [3, 14]: 0.16% | hypodiploid nuclei frequency [3, 15]: 21.5% | hypodiploid nuclei frequency [3, 16]: 0.2% | hypodiploid nuclei frequency [3, 17]: 24.4% | hypodiploid nuclei frequency [3, 18]: 0.38% | hypodiploid nuclei frequency [3, 20]: 0.16% | hypodiploid nuclei frequency [3, 22]: 0.18% | hypodiploid nuclei frequency [3, 24]: 0.28% | hypodiploid nuclei frequency [3, 26]: 0.18%

CCCCCCOC(=O)c1ccccc1C(=O)OCCCCCC [Dihexyl phthalate]
relative survival [1, 4]: 114 | relative survival [1, 5]: 78.3 | relative survival [1, 6]: 126 | relative survival [1, 7]: 75 | relative survival [1, 8]: 121 | relative survival [1, 9]: 78.3 | relative survival [1, 10]: 124 | relative survival [1, 11]: 94.3 | relative survival [1, 12]: 127 | relative survival [1, 13]: 90.2 | relative survival [1, 14]: 126 | relative survival [1, 15]: 97.9 | relative survival [1, 16]: 119 | relative survival [1, 17]: 92.4 | relative survival [1, 18]: 108 | relative survival [1, 19]: 82.8 | relative survival [1, 20]: 141 | relative survival [1, 21]: 53.5 | relative survival [1, 22]: 117 | relative survival [1, 23]: 69 | relative survival [1, 24]: 115 | relative survival [1, 25]: 45.6 | relative survival [1, 26]: 92.6 | relative survival [1, 27]: 44.7 | relative survival [1, 28]: 132 | relative survival [1, 29]: 38 | relative survival [1, 30]: 124 | relative survival [1, 31]: 54.5 | relative survival [1, 37]: 124 | relative survival [1, 32]: 38.8 | relative survival [1, 38]: 114 | relative survival [1, 33]: 51.8 | relative survival [1, 39]: 109 | relative survival [1, 34]: 37.4 | relative survival [1, 35]: 111 | relative survival [1, 36]: 43.6 | micronucleus frequency [2, 4]: 1.16% | micronucleus frequency [2, 5]: 1.6% | micronucleus frequency [2, 6]: 1.1% | micronucleus frequency [2, 7]: 1.26% | micronucleus frequency [2, 8]: 0.96% | micronucleus frequency [2, 9]: 1.4% | micronucleus frequency [2, 10]: 1.24% | micronucleus frequency [2, 11]: 1.22% | micronucleus frequency [2, 12]: 0.9% | micronucleus frequency [2, 13]: 1.32% | micronucleus frequency [2, 14]: 0.9% | micronucleus frequency [2, 15]: 1.02% | micronucleus frequency [2, 16]: 1.26% | micronucleus frequency [2, 17]: 1.26% | micronucleus frequency [2, 18]: 1.06% | micronucleus frequency [2, 19]: 1.78% | micronucleus frequency [2, 20]: 1.08% | micronucleus frequency [2, 21]: 2.38% | micronucleus frequency [2, 22]: 1% | micronucleus frequency [2, 23]: 2.16% | micronucleus frequency [2, 24]: 1.2% | micronucleus frequency [2, 25]: 2.08% | micronucleus frequency [2, 26]: 1.32% | micronucleus frequency [2, 27]: 2.16% | micronucleus frequency [2, 28]: 1.24% | micronucleus frequency [2, 30]: 1.24% | micronucleus frequency [2, 31]: 2.2% | micronucleus frequency [2, 37]: 1.38% | micronucleus frequency [2, 38]: 1.76% | micronucleus frequency [2, 33]: 2.44% | micronucleus frequency [2, 39]: 1.22% | micronucleus frequency [2, 35]: 1.4% | micronucleus frequency [2, 36]: 1.8% | hypodiploid nuclei frequency [3, 4]: 0.28% | hypodiploid nuclei frequency [3, 5]: 0.58% | hypodiploid nuclei frequency [3, 6]: 0.22% | hypodiploid nuclei frequency [3, 7]: 0.58% | hypodiploid nuclei frequency [3, 8]: 0.12% | hypodiploid nuclei frequency [3, 9]: 0.52% | hypodiploid nuclei frequency [3, 10]: 0.38% | hypodiploid nuclei frequency [3, 11]: 0.6% | hypodiploid nuclei frequency [3, 12]: 0.2% | hypodiploid nuclei frequency [3, 13]: 0.58% | hypodiploid nuclei frequency [3, 14]: 0.4% | hypodiploid nuclei frequency [3, 15]: 0.52% | hypodiploid nuclei frequency [3, 16]: 0.36% | hypodiploid nuclei frequency [3, 17]: 0.38% | hypodiploid nuclei frequency [3, 18]: 0.18% | hypodiploid nuclei frequency [3, 19]: 0.68% | hypodiploid nuclei frequency [3, 20]: 0.28% | hypodiploid nuclei frequency [3, 21]: 0.74% | hypodiploid nuclei frequency [3, 22]: 0.1% | hypodiploid nuclei frequency [3, 23]: 0.74% | hypodiploid nuclei frequency [3, 24]: 0.32% | hypodiploid nuclei frequency [3, 25]: 0.76% | hypodiploid nuclei frequency [3, 26]: 0.34% | hypodiploid nuclei frequency [3, 27]: 0.48% | hypodiploid nuclei frequency [3, 28]: 0.28% | hypodiploid nuclei frequency [3, 30]: 0.12% | hypodiploid nuclei frequency [3, 31]: 0.54% | hypodiploid nuclei frequency [3, 37]: 0.32% | hypodiploid nuclei frequency [3, 38]: 0.28% | hypodiploid nuclei frequency [3, 33]: 0.68% | hypodiploid nuclei frequency [3, 39]: 0.36% | hypodiploid nuclei frequency [3, 35]: 0.22% | hypodiploid nuclei frequency [3, 36]: 0.6%
